Measured values as given in PubChem BioAssay AID463173 (ICCB-Longwood Screening Facility, Harvard Medical School, 2010).
The whole screen tested about 52,000 compounds, of which about 4,300 (8.3%) were called active. Cut-off read from the data, not from the text of the source: active = survival mostly below about 52% (no sharp cut-off); inactive = mostly above about 56%. Some of the results follow.

Each compound was assayed on DeltatarO mutant (assay: growth inhibition of S. aureus wild type versus tarO mutant, primary screen, teichoic acid synthesis inhibitors, RN4220, OD600 (AID 463173)). Conditions: OD600, 18 h, stronger effect = lower value, screened at 18.75 µg/mL (by protocol).

Row | SMILES | survival
1 | Cn1c(/C(C#N)=C/c2ccc(C(F)(F)F)cc2)nc2ccccc21 | inactive: 103%
2 | Cc1ccc(CNC(=O)CSCc2nc(-c3cccc(C)c3)oc2C)cc1 | active: -5%
3 | CCC(NC(=O)Nc1cccc(C)c1)c1c(-n2cccc2)sc2c1CCN(C)C2 (configuration not stated) | inactive: 95%
4 | O=C(CCC1N=C2c3ccccc3N=C(SCC(=O)NCCc3ccccc3)N2C1=O)NCc1ccc(F)cc1 (configuration not stated) | inactive: 57%
5 | Cc1ccc(C)c(OC(=O)CSc2nnc(-c3cccs3)o2)c1 | inactive: 75%
6 | COc1ccc2c(c1)CC(C(=O)NCCc1ccc(S(N)(=O)=O)cc1)CO2 (configuration not stated) | inactive: 79%
7 | CCCC(=O)Nc1cc(-c2nnc3c4ccccc4c(C)nn23)ccc1C | inactive: 82%
8 | COc1cc2ccccc2cc1C(=O)N1CCN(c2nc3c(F)cc(F)cc3s2)CC1 | inactive: 128%
9 | CCOC(=O)C1CCN(C(=O)CSc2n[nH]c(-c3ccc(OC)cc3)n2)CC1 | inactive: 124%
10 | COc1ccccc1N1CCN(C(=O)c2cc3c(-c4ccccc4F)nn(C)c3s2)CC1 | active: 46%
11 | Cn1c(=O)n(C)c2cc(N3CCOCC3)c(NS(=O)(=O)c3ccc(Cl)cc3)cc21 | inactive: 75%
12 | CCOC(=O)Cn1c(CN2CCN(c3ccc(OC)cc3)CC2)nc2c1c(=O)[nH]c(=O)n2C | inactive: 90%
13 | COc1ccc(CCNC(=O)Cn2c(-c3ccc(F)cc3)cc(C(C)=O)c2C)cc1OC | inactive: 68%
14 | CCOc1ccccc1NC(=O)CSc1ccc2nc(-c3ccccc3)cn2n1 | inactive: 94%
15 | COC(=O)c1ccccc1NC(=O)Cn1c(=O)n(CCCC(=O)NCc2ccccc2Cl)c(=O)c2ccccc21 | inactive: 69%
16 | O=C(Cn1cnc2c(nc3n2CCCCC3)c1=O)Nc1cccc(C(F)(F)F)c1 | inactive: 83%
17 | CCOc1ccc(/C=C/c2nc(C#N)c(NCCCN(C)C)o2)cc1 | inactive: 93%
18 | O=C(COc1ccccc1Cl)N(Cc1cccc(F)c1)C1CCS(=O)(=O)C1 (configuration not stated) | inactive: 77%
19 | CCOc1ccc(/C=N/n2nnnc2N)cc1OCC | inactive: 75%
20 | CCOc1ccc(CNC(=O)C2CCCN(c3nn4cc(-c5ccc(F)cc5)nc4s3)C2)cc1 (configuration not stated) | inactive: 67%
21 | COc1ccc(N2CCN(CCCNC(=O)c3ccc4nc(Cc5ccccc5)oc4c3)CC2)cc1 | inactive: 93%
22 | COc1ccc(-n2c(=O)c3c(c4cc(OC)ccc4n3C)n(CC(=O)N3CCCC3)c2=O)cc1 | inactive: 102%

Row | SMILES | survival
23 | CCc1ccc(NC(=O)CCCc2nnc3n(CCCOC)c(=O)c4sccc4n23)cc1 | inactive: 85%
24 | Cc1ccc(NC(=O)C(C)Sc2nc3c(c(=O)[nH]2)CCCC3)cc1Cl (configuration not stated) | inactive: 56%
25 | CSc1cccc(NC(=O)CN2C(=O)CCc3cc(S(=O)(=O)N4CCCCC4)ccc32)c1 | inactive: 58%
26 | CC1CCN(C(=O)CSc2nnc(NC(=O)Nc3ccccc3)s2)CC1 | inactive: 73%
27 | COC(=O)c1ccccc1NC(=O)Cn1c(CCC(=O)O)ccc1-c1ccc(C)cc1 | active: 45%
28 | Cc1ccc2c(c1)N(C(=O)CCC(=O)NCc1cccs1)CC(C)O2 (configuration not stated) | inactive: 62%
29 | CCOC(=O)C1CCN(C(=O)Cn2ncc3c4ccccc4n(Cc4ccccc4)c3c2=O)CC1 | inactive: 81%
30 | Cc1cccc(CC(=O)Nc2c(C(=O)Nc3cccc(F)c3)oc3ccccc23)c1 | inactive: 57%
31 | CCOC(=O)c1c(NC(=O)COc2ccc(C(C)(C)C)cc2)sc2c1CCCC2 | inactive: 75%
32 | Cc1ccc(NC(=O)c2c(C)nn(-c3ccccc3)c2-n2cccc2)c(Cl)c1 | inactive: 79%
33 | Cc1ccc(N2C(=O)CCSC23C(=O)N(Cc2ccc(F)cc2)c2ccccc23)cc1 (configuration not stated) | inactive: 90%
34 | CCOc1cccc(C(=O)N(Cc2ccc(F)cc2)Cc2ccco2)c1 | inactive: 51%
35 | O=C1CC(c2ccc(F)cc2F)c2cc3c(cc2N1)OCO3 (configuration not stated) | inactive: 140%
36 | COc1ccc(Cl)cc1NC(=O)C1CCN(S(=O)(=O)c2ccc(F)cc2)CC1 | active: 43%
37 | COc1ccc(OC)c(NC(=O)Cn2c(=O)n(-c3ccc(Cl)cc3)c(=O)c3c(C)c(C)sc32)c1 | inactive: 90%
38 | Cc1ccc(N2C(=O)CS(=O)(=O)C23C(=O)N(Cc2ccc(Cl)cc2)c2ccccc23)cc1C (configuration not stated) | inactive: 69%
39 | COCCn1c(SCC(=O)c2ccc(F)cc2)nc2cc(C(=O)NC3CCCC3)ccc2c1=O | inactive: 94%
40 | Cc1ccc2nc(CN3CCN(S(=O)(=O)c4ccc(C)c(C)c4)CC3)oc2c1 | inactive: 87%
41 | O=C(Nc1ccc2oc(-c3ccc4ccccc4c3)nc2c1)c1cc(Cl)ccc1Cl | inactive: 86%
42 | Cc1ccc(C2CC(=O)n3nc(-c4cccc(C)c4)nc3S2)cc1 (configuration not stated) | inactive: 97%
43 | COc1cc(-c2ccno2)ccc1S(=O)(=O)N1CCN(c2ccccc2)CC1 | inactive: 72%
44 | CC(C)C(=O)Nc1nnc(SCc2cc(=O)n3ccccc3n2)s1 | inactive: 86%

Row | SMILES | survival
45 | CN(C)c1ccc(CNC(=O)C2CCN(S(=O)(=O)c3ccc4[nH]c(=O)ccc4c3)CC2)cc1 | inactive: 101%
46 | Cc1ccc(NC(=O)CCSc2nc(-c3ccc4c(c3)OCO4)cc(C(F)(F)F)n2)c(C)c1 | inactive: 66%
47 | CCOc1ccccc1C(=O)NCc1ccc2c(c1)CCN2C(=O)c1ccccc1 | inactive: 72%
48 | Cc1cc(C)c2oc(-c3cccc(NC(=O)COc4ccccc4Cl)c3C)nc2c1 | active: 42%
49 | Cc1cccc(Nc2nc3c(S(=O)(=O)c4ccc(Br)cc4)nnn3c3ccsc23)c1C | inactive: 44%
50 | Cc1cc(NC(=O)CSc2ncc(C(=O)Nc3ccc(C)c(C)c3)c(=O)n2C)no1 | inactive: 99%
51 | CC1=C(C(=O)Nc2cccnc2)C(c2ccccc2Cl)n2nc(-c3ccccc3)nc2N1 (configuration not stated) | inactive: 74%
52 | COc1cccc(-c2nc3c(C#N)c[nH]n3c2NC2CCC(C)CC2)c1 (configuration not stated) | active: 29%
53 | COc1ccc(CCNC(=O)c2ccc(Cn3c(SCC(=O)NCCC(C)C)nc4cc5c(cc4c3=O)OCO5)cc2)cc1OC | inactive: 120%
54 | O=C(NCc1ccccc1)c1ncn[nH]1 | inactive: 80%
55 | Clc1cccc(-n2ncc3c(NCCCN4CCOCC4)ncnc32)c1 | inactive: 94%
56 | COc1ccc(OCC(=O)NC(Cc2c[nH]c3ccccc23)C(=O)O)cc1 (configuration not stated) | inactive: 60%
57 | CCc1nnc(SC(CC)C(=O)Nc2cc(C)ccc2C)c2cc3occc3n12 (configuration not stated) | inactive: 79%
58 | CC1CCN(CCCNC(=O)CN2C(=O)CSc3ccc(S(=O)(=O)N4CCOCC4)cc32)CC1 | inactive: 89%
59 | Cc1ccc(C)c(NS(=O)(=O)c2ccc3oc(=O)c4ncn(C)c4c3c2)c1 | inactive: 82%
60 | NC(N)=NC(=O)c1ccc(N)cc1 | inactive: 86%
61 | CCn1c(=O)c2cc(C(=O)NCCc3ccc(Cl)cc3)sc2c2ccccc21 | inactive: 76%
62 | CCn1c(=O)c2sccc2n2c(CCC(=O)Nc3ccc(C(C)C)cc3)nnc12 | inactive: 93%
63 | Cc1ccc(N(C)C(=O)C2CCN(S(=O)(=O)c3cn(C)cn3)CC2)cc1 | active: 37%
64 | CCSc1nc(NC(C)=O)nn1C(C)=O | inactive: 87%
65 | Cc1ccc(NC(=O)c2c(C)oc3ncn(CC(C)C)c(=O)c23)nc1 | inactive: 120%
66 | Cc1ccc2nc3c(cc(C(=O)NCc4ccco4)c(=N)n3C(C)C)c(=O)n2c1 | inactive: 84%

Row | SMILES | survival
67 | CN1/C(=C2/SC(=O)N(Cc3ccccc3)C2=O)Sc2ccccc21 | inactive: 74%
68 | O=C(Nc1ccc(N2CCOCC2)c(C(=O)O)c1)c1ccc(Br)cc1 | active: 8%
69 | Cc1ccc(CNC(=O)Cn2ccn(-c3ccc(F)cc3)c(=O)c2=O)cc1 | inactive: 56%
70 | CC(NC(=O)CSc1nc(-c2ccccc2F)nc2cc(=O)[nH]n12)c1nc2ccccc2n1C (configuration not stated) | inactive: 88%
71 | Cc1cccc(CN2C(=O)c3ccccc3S(=O)(=O)c3ccc(C(=O)NC4CCCCC4)cc32)c1 | inactive: 79%
72 | COc1cccc2c(=O)cc(C)[nH]c12 | inactive: 88%
73 | COc1ccc(NC(=O)c2cc3c(=O)n(Cc4cccnc4)ccc3nc2C)c(OC)c1 | inactive: 83%
74 | COc1ccc(OC)c(S(=O)(=O)N2CCN(Cc3nc4ccc(C)cc4o3)CC2)c1 | inactive: 76%
75 | CCN(C(=O)Cn1c(=O)n(Cc2ccc3c(c2)OCO3)c(=O)c2ccc(C(=O)NC3CCCCC3)cc21)c1cccc(C)c1 | inactive: 84%
76 | Cc1cc(C)cc(NC(=O)N2CCN(C(=O)c3nsc4ccccc34)CC2)c1 | inactive: 88%
77 | CCOC(=O)c1cc(S(=O)(=O)NCc2ccc(OC)cc2)[nH]n1 | inactive: 88%
78 | CCCC(=O)Nc1ccccc1C(=O)OCc1cc(=O)n2nc(C(C)C)sc2n1 | inactive: 99%
79 | Cc1cccc2c(=O)cc(CSc3ccccc3NC(=O)C(C)(C)C)[nH]c12 | inactive: 102%
80 | CCC(=O)N1CCCc2cc(S(=O)(=O)N3CCC(C(=O)Nc4ccc(C#N)cc4)CC3)ccc21 | inactive: 125%
81 | CC(=O)c1cccc(NC(=O)Cn2cc(C(=O)c3cccc(Cl)c3)c(=O)c3ccc(C)nc32)c1 | inactive: 56%
82 | Cc1ccc(OCCSc2nc3ccc(NC(=O)c4ccco4)cc3s2)cc1 | inactive: 84%
83 | CCOc1ccc2nc(N(Cc3cccnc3)C(C)=O)sc2c1 | inactive: 75%
84 | COc1ccc(-c2cc3ccc(O)c(CN4CCCCC4C)c3oc2=O)cc1OC (configuration not stated) | inactive: 67%
85 | CC(=O)N1CCc2cc(S(=O)(=O)NC(Cc3ccccc3)C(=O)NCc3ccccc3Cl)ccc21 (configuration not stated) | inactive: 66%
86 | CCCc1ccc(OC(C)c2nc(-c3ccc(-n4cccc4)cc3)no2)cc1 (configuration not stated) | active: 52%
87 | O=C(CCNS(=O)(=O)c1ccc2c(c1)CCN2C(=O)C1CC1)N1CCN(c2cccc(C(F)(F)F)c2)CC1 | inactive: 83%
